Results taken from the supplement of paper PMC3334620.
The full ranking holds about 33,000 sequences; the median of “E-score (-0.5 to 0.5)” is about -0.017, and the highest 2% start at about 0.3. Some of the results follow.

Each sequence was assayed against T1, Sut1 (UniProt P53032) (assay: PBM E-score (8-mer binding enrichment) (E-score (-0.5 to 0.5)); higher = stronger / more preferred TF binding; most listed sequences are background and not binding sites). Settings: protein concentration: 200 nM; construct: GST-full length.
T1 sequence: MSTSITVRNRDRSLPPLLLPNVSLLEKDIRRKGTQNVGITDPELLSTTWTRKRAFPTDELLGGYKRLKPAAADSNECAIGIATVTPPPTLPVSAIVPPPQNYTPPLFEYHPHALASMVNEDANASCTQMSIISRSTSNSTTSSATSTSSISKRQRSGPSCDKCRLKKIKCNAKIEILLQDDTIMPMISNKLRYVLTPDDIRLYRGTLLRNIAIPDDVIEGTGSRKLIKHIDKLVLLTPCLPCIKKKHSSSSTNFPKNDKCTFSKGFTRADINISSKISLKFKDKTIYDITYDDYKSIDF
Method in brief: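 Universal all-10-mer Agilent arrays, double-stranded by primer extension on fresh or once-stripped slides, were probed with about 100-200 nM GST-tagged yeast transcription factors made by PURExpress. Fluorescent anti-GST detected bound protein, and masliner normalised the scans. E-scores from the Universal PBM Analysis Suite were given to each ungapped eight-base word pooled with its reverse complement.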

Sequence | PBM E-score
CATTACCA | -0.00971
AGGCGGGG | -0.243
ATCCTCCC | -0.236
CAAGGACC | -0.139
AAATGCCA | 0.058
CCGTGCAC | -0.228
GGCGCGAC | 0.00813
AGAAAGTA | 0.153
GTGCTCAA | 0.132
CATCGAGG | -0.169
AGTGCCCC | -0.302
CCTCCCCC | -0.438
CGCCATTC | 0.093
ATCATGAT | 0.175
ACGTGAAA | 0.149
TAGGGTAA | 0.132
ACCCACTA | 0.0761
AAGGCACA | -0.0277
ACGTCAAG | -0.0358
GGTCATAA | 0.0894
CCTACCCC | -0.105
ATCTTTCG | -0.00103
AACAGTGG | -0.143
GATAGTAC | -0.00235
CTGCCGAC | -0.31

Sequence | PBM E-score
CAACCTGG | -0.0286
CCCCGGAA | 0.216
AAATCAGA | 0.0971
ACATAAAA | 0.1
ACTAACTC | 0.209
ACGTCGAT | 0.0428
CCACGCCC | -0.223
CCCCCACA | -0.434
ATTCTCCA | -0.0299
AGACGGGA | -0.153
ACTTGTCT | 0.0607
AGGGCCCG | -0.184
TACCATGA | -0.0343
ACAGACAT | 0.0204
ACGTTTGC | -0.0259
GTCTTTCA | 0.00965
ACCAATCA | 0.134
ACACTTTA | 0.182
CAATTAGC | 0.131
CCGTCATA | -0.00145
CTGATAAG | 0.0276
AAGCGGAC | 0.12
CGAGAAAC | 0.12
GACCGCGC | -0.0311
ATCGGGAG | 0.00129

Sequence | PBM E-score
ATTCGCTG | 0.123
AACCGCTT | -0.108
GCGAAGTA | 0.0953
CACGGTGG | -0.0763
ACCGGGGC | -0.013
CCACGCTC | -0.297
ACAATGAG | 0.0663
CTTCACAA | 0.047
ATCGACAC | -0.103
ACGGTGAC | -0.181
ATATGCAG | -0.134
GCTGGTCA | -0.178
AGCAGTGA | -0.0355
AGGGTCGA | -0.0378
CCTCAAAG | -0.186
ATGGTGGA | -0.145
CCGTTTAG | 0.104
AACTGTCT | -0.116
AGTGAGTC | -0.0638
ACCTCAGT | -0.1
ATTTAGAG | 0.126
AAGCGTTA | 0.0481
CAATTTGC | -0.181
GCCCTTCC | -0.181
GACGCCAC | -0.3

Sequence | PBM E-score
ATCGGACC | 0.353
ACCCCGCG | 0.111
CCCCCAAC | -0.282
GTAGCAGA | 0.0197
TAGAACCA | 0.12
AAGGAAGC | -0.117
GCAAGATA | 0.063
CCTGTGGA | -0.271
GAGGTTTA | 0.127
GTAATAAC | 0.104
AGAGGTGC | -0.202
CAGGCACA | -0.317
CTAGATGA | -0.0501
GTGCTGGA | -0.268
ATGCCGGC | -0.0395
GCGACCGC | -0.23
ACGCTAAC | -0.22
AGGGCTTA | -0.334
ACCTTCCA | -0.124
ACGACCTA | -0.0461
AATTCGCT | 0.271
ATGCAGTG | -0.0663
AGCGTGAG | -0.265
AATGTGGT | 0.0399
AATAACCC | 0.135

Sequence | PBM E-score
TAACAAGA | 0.123
CGGACTCA | 0.429
GATATGAC | 0.0419
AAATACAG | 0.0417
GGACTCCC | -0.0455
TAATACGA | 0.0709
TCTAGAAA | 0.06
CAATCCCC | 0.097
AGACCTAA | -0.109
AGCGCTAA | 0.117
CTCTATAC | 0.00445
ACCGTTTA | 0.00805
ATTAGTGG | 0.173
AAGTTAAG | -0.0496
AGTTCAAC | 0.113
CATTAGGC | -0.191
CTCCAACA | 0.0974
CATACGAC | 0.0661
ATACTCAA | 0.11
CATGCCGA | -0.0693
AGTCTACA | -0.0739
CAACTGTG | -0.0883
AGGGGGCG | -0.222
GTTTCTGA | 0.112
CGCGAGCA | -0.227

Sequence | PBM E-score
ATAGAATG | 0.0365
CCCTAAAC | -0.118
TGCTCGAA | -0.0479
ACCGTAAC | -0.0238
AGACTAAC | 0.0744
CGGGTCTC | -0.0622
CGGACCAA | 0.264
GGGAGTTA | -0.0288
AACCAGAT | 0.0291
ATTTCTGA | 0.0444
TACCACCA | 0.0245
GCATGGGC | -0.174
CTAAACGC | 0.0262
AAGCCCCC | -0.321
GGGGCAAC | -0.217
AGTTTTCG | 0.181
ATACTTAG | -0.0112
GGCCTGCA | -0.402
CCCTCATA | -0.256
ACCTATAC | 0.115
ATTGTAAA | 0.255
ATTCAACG | 0.206
ATGGACTC | -0.0566
TATAGATA | 0.228
CTGGGTCA | -0.152

Sequence | PBM E-score
GGCGGCAC | -0.0808
CCCTGTTA | 0.0626
GAGCTGTA | -0.0784
AGTGGTGG | -0.162
AAATAAAT | 0.329
CATGTGCG | -0.163
AGGGGCTA | -0.289
CGTCACTC | 0.12
TCACGCAA | 0.205
CGTGCCAA | -0.0324
AAAGTTGA | 0.0344
CCTCTACA | -0.112
ATGTTTGG | 0.142
GATCTTGA | 0.0152
AAGCGCCG | 0.152
CCAACAAC | 0.0768
GGACGAAA | 0.0248
TAAAAGCA | 0.192
AGGCCACC | -0.119
TCTTGGAA | 0.173
AGAATAAT | 0.0203
AGGCTCAC | -0.307
CACTTAAA | 0.189
AGCATTTC | 0.117
GACCCCCC | -0.173

Sequence | PBM E-score
ATACTTCG | 0.0847
CTTCGGAA | 0.335
GTGGGTTA | -0.16
CATAATAC | 0.159
TCAAAGAA | 0.0215
ATTCTAGC | 0.00544
CAGATATG | -0.0355
ATACTAAT | 0.0774
GAAGGGTA | -0.132
GCATTGGA | 0.0194
GCCATGCC | -0.125
GCTCCAGA | -0.199
AATCCCAC | -0.00843
CGTCGCCC | -0.255
CCCCAGCC | -0.186
CATTACGC | 0.152
ATGTGGGC | -0.0832
CACAGCTA | -0.207
CGATAGGA | 0.0784
ACGGACGG | -0.0102
AAGCGATG | -0.203
TGGGCCAA | -0.0219
GAAAACAA | 0.184
GGAGATTA | 0.257
ATAAGCAT | 0.0632

Sequence | PBM E-score
CAAGATAC | 0.0202
CAGGTGGG | -0.239
ATGGAAGA | 0.0525
ATGTATAA | 0.175
TGAACGCA | -0.0618
CGGTGATC | 0.0252
AATCTTCG | 0.12
CTATCTCC | 0.114
AGCCGACA | -0.142
AGCGACAC | -0.129
AACTGTCG | 0.00476
ACGGCTGA | -0.0753
AATCCTCC | 0.0382
CCTTCTTC | -0.19
AGACTACG | -0.114
AAATATAG | 0.199
GCATACAC | 0.024
GAGGCTCA | -0.297
CATTTTGA | 0.0309
